The list shows a part of the results.
T1: UNK ZnF1-3 (human, UniProt Q9C0B0 31-174)
T1 sequence: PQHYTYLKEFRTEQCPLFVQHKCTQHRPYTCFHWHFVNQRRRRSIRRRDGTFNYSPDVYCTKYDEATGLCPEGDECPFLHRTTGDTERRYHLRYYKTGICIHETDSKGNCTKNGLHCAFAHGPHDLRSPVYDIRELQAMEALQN

B1: chr7:4964383:4964384:-_ENSMUSG00000061374_ENSMUST00000077385|mus_mus|motif|central (ssRNA)
RNA: GGGAGUUCUACAGUCCGACGAUCGCAUCGGUAGGGUCGUUCACCAGUGUGUGAGCGCAGGUGGUUAGCCAAGUUGAAGCGGUGCUUGAAGCCCUUACCGCAUCGAGGACAUGCGUGGGGCUUGAGAGCCGUGUGUCGAGCAAACAACAGAGGAUUGAGCAUCA
B2: chr4:101285476:101285477:+_ENSMUSG00000028528_ENSMUST00000094953|mus_mus|motif|central (ssRNA)
RNA: GGGAGUUCUACAGUCCGACGAUCGAGUGGCUUGAAGUGAGGGCGGUAGGGCUUAUCUGCAAGUAGGUCGCACAUGUAGCCGGAGUACCUCCUGUGAGACGGAGACAGUCCAAUUCCUGGUCGCUUUGCGUAGAGUAAUCGAACCAACAGAGGAUUGAGCAUCA
B3: chr3:151883435:151883436:+_ENSMUSG00000028034_ENSMUST00000166984|mus_hu|motif|central (ssRNA)
RNA: GGGAGUUCUACAGUCCGACGAUCCAUCUCUCCAUUUCUUCCUAUUACAAUGCCAACAGCAAAUCUUGGAAUGGGGACAUCGGUCCCUUCAUUUCCUCCUAUUCUUGACCCAUACUCAUUCCGAACUUCUCUGAAACCGCCUUGCAACAGAGGAUUGAGCAUCA
B4: 115805245_115805365_753_3pUTR_ENSG00000185565_ENST00000490035|human|control|control (ssRNA)
RNA: GGGAGUUCUACAGUCCGACGAUCCAUAGACAUCCACCUUCUGGAUUCGGAGGCUGUAUUCCAGAGAAUGGCGUUUCUCCAGCUCAACCCGUGGGUCCAGAGACCACUUGUCAUGUCCAGCAAAAAUGAUGCCAGAACGGUUCACAACAGAGGAUUGAGCAUCA
B5: chr1:23637546:23637547:-_ENSG00000125944_ENST00000302271|hu_hu|FALSE|FALSE (ssRNA)
RNA: GGGAGUUCUACAGUCCGACGAUCGUAGUAAUCUGGAGGGUAGCCAUAUCCACCUCUCCCCCCACCACGACCCCGACCUCUAAUUGGAGGUGGCAUGCGAGGAGGAGGGUGGUAGUAAUAAUCUUCAUACGCAGUGCUUCUGGACAACAGAGGAUUGAGCAUCA
B6: chrX:17818885:17818886:+_ENSMUSG00000037369_ENSMUST00000044484|mus_mus|FALSE|FALSE (ssRNA)
RNA: GGGAGUUCUACAGUCCGACGAUCAUACCAGGACUGGCCAGAAUUUGGAUCUGCUUCCAAGGACUUCUGGAGAUACUGAAUAGCAUAACUUUCCUUGGUGGCCUUAUCUCCCAGGAGAUCCACAGUGUGAUGCAUCCAACCUAACAACAGAGGAUUGAGCAUCA
B7: chr10:77750680:77750681:-_ENSMUSG00000001211_ENSMUST00000139282|mus_mus|FALSE|FALSE (ssRNA)
RNA: GGGAGUUCUACAGUCCGACGAUCACGGCGGUAUAGGUGCUUGCUGAUGGGCCAGAGGGCCAGUGUGCACAGCUGGGUGAAGUUGAUAAUUAACCCGCUCACCACGAAGACGAAGCCAAUGAGCAGGUGCACCACGAACUGGGUCAACAGAGGAUUGAGCAUCA
B8: chr18:6437031:6437032:-_ENSMUSG00000024240_ENSMUST00000028100|mus_hu|FALSE|FALSE (ssRNA)
RNA: GGGAGUUCUACAGUCCGACGAUCGCAGUACUGUACAGAUAAUUGCUGUAUUCUUAAUUUACAGAUGUUGAUUUUUUUCCUAUUAACAGUAAGAAAAGAAAAAUUGAAGCAUGAGAGAUGAGCAUUGCUGUCAAGUCCCCACAGCAACAGAGGAUUGAGCAUCA
B9: chr16:20683585:20683586:+_ENSMUSG00000045983_ENSMUST00000044783|mus_hu|FALSE|FALSE (ssRNA)
RNA: GGGAGUUCUACAGUCCGACGAUCUAUUGCCUCUGUUAACAUCUUCAGUUUGAACAACUCUCCAAUAAACUUGAUAUUCCCUAAAGAGCGCCGCCGGGCUAUGUCCCGAGCCUCUUCCAGCUCUUCCUUCAGGCGUCCUCGUUCCAACAGAGGAUUGAGCAUCA
B10: 247014174_247014294_5197_CDS_ENSG00000153207_ENST00000391829|human|control|control (ssRNA)
RNA: GGGAGUUCUACAGUCCGACGAUCGACCAAUUUAGUGGGACACAUUAUGUUUUGGCUCACUAAAGGUAUUGUUUCAUGAAUGGACUGUUCCAUUGUAUCUGAAGUAAUUUCUUUACUUCUUGUGUCUUUAAUUACAUCUAGUAACAACAGAGGAUUGAGCAUCA
B11: 24016654_24036560_782_3pUTR_ENSMUSG00000024277_ENSMUST00000025127|mouse|control|control (ssRNA)
RNA: GGGAGUUCUACAGUCCGACGAUCCGUUUCUAAAUCUUUGUCAGAUCUGGAUGCAGAGCCACUGGAUGAAGCCCUUUUGGCAGACGAGGGGCGAGAAGGUGUGGAUCCUGGCUUAGAUGCAGGACUUGACUUAGCCGCGCCUGCCAACAGAGGAUUGAGCAUCA
B12: chr19:8913615:8913616:-_ENSMUSG00000071658_ENSMUST00000096259|mus_hu|mus_mus_mus_hu_False|48_88 (ssRNA)
RNA: GGGAGUUCUACAGUCCGACGAUCAGGGUACCAAAACCUUCUGCCUGAGAUAGGUGCCCCACCCAGUAGGGAGUUGCAGCUGAAAGUAUCCGUAGCAGAAGCAGUGACUAUACGAAAGGAGGCCCCUGGGGAGGGCCAGGCCAGCAACAGAGGAUUGAGCAUCA
B13: chr17:39847130:39847131:+_ENSG00000173812_ENST00000469257|hu_hu|motif|central (ssRNA)
RNA: GGGAGUUCUACAGUCCGACGAUCGUUACAUUAUACAAGCUGUGAGGUUUUUAAACCUGUGACAAGGGAGAGAAGGGAAAUUCGGCUCAUUGCAAGGAAAUCCUCACUUAAGCUUCAGUGAGCCACAAGCACUUAAAACCCAUGCAACAGAGGAUUGAGCAUCA
B14: chr13:100191535:100191536:-_ENSMUSG00000052727_ENSMUST00000064762|mus_hu|FALSE|FALSE (ssRNA)
RNA: GGGAGUUCUACAGUCCGACGAUCAGAGGGGAUAUUGCACACAAAUAUCAUAAAAGCACUACAUAUUACUUUCACUGGAAACUAAUUUUCUACAUUAGAUAUGACUGGAUAGGAUAGAAGUGAUGCAGGAUUAUAAGACAUAAUCAACAGAGGAUUGAGCAUCA

These binders were tested against T1, UNK ZnF1-3 (assay: nsRBNS (natural sequence RNA bind-n-seq); RBNS binding buffer (assumed for nsRBNS): 25 mM Tris pH 7.5, 150 mM KCl, 3 mM MgCl2, 0.01% Triton X-100, 500 ug/ml BSA, 20 U/ml SUPERase-In, 4 C; UNK is unkempt and MSI1 is Musashi-1; names of the RNAs are library labels; protein concentration not given here; high values mean tight binding).

Row | Binder | binding signal
1 | B1 | 1.34 enrichment R
2 | B2 | 0.864 enrichment R
3 | B3 | 0.821 enrichment R
4 | B4 | 0.723 enrichment R
5 | B5 | 0.572 enrichment R
6 | B6 | 1 enrichment R
7 | B7 | 1.15 enrichment R
8 | B8 | 1.63 enrichment R
9 | B9 | 0.714 enrichment R
10 | B10 | 0.318 enrichment R
11 | B11 | 0.536 enrichment R
12 | B12 | 1.56 enrichment R
13 | B13 | 1.12 enrichment R
14 | B14 | 0.924 enrichment R
